Test results reported in patent publication US11208436B2, “Populations of polypeptides having a triple-helical structure” (Navigo Proteins GmbH, priority 2018, dated 2021).

Target: T1, IgG Fc domains (Homo sapiens, UniProt P01857)
T1 construct: The IgG1-Fc-domain was immobilized on a CM-5 sensor chip (GE Healthcare)
Assay: Binding to IgG Fc domains
Conditions: qualitative statement; values not given
Text: The IgG1-Fc-domain was immobilized on a CM-5 sensor chip (GE Healthcare); the chip was equilibrated with SPR running buffer. Surface-exposed carboxylic groups were activated by passing a mixture of EDC and NHS to yield reactive ester groups. 700-1500 RU target (on-ligand) were immobilized on a flow cell, IgG-Fc (off-ligand) was immobilized on another flow cell. Injection of ethanolamine after ligand immobilization was used to block unreacted NHS groups. Upon ligand binding, protein analyte was accumulated on the surface increasing the refractive index. This change in the refractive index was measured in real time and plotted as response or resonance units (RU) versus time. The analytes were applied to the chip in serial dilutions with a flow rate of 30 μl/min. The association was performed for 120 seconds and the dissociation for 360 seconds. After each run, the chip surface was regenerated with 30 μl regeneration buffer (10 mM HCL) and equilibrated with running buffer. A dilution series served as positive control, whereas a dilution series of unmodified scaffold represents the negative control. The control samples were applied to the matrix with a flow rate of 30 μl/min, while they associate for 60 seconds and dissociate for 120 seconds. […] Evaluated dissociation constants (KD) were standardized against off-target and indicated.

SEQ ID NO: 2: alkaline stable, non-Fc binding parental protein with triple helix structure, 58 amino acids; scaffold of library PA11 (IAAKFDEAQSAADSEILHLPNLTEEQRNAFRQSLSDDPSVSLEVLGEAQKLND; PA11 artifical sequence for library)
binding to IgG Fc domains: no binding
